Measured values taken from patent publication US8722849B2, “Polypeptides” (Novo Nordisk A/S, priority 2011, dated 2014).
The name of at least one read-out is uncertain. Starred links: 1 amine or outer side, 2 acyl side, 3 side chain; linkers in the order of their positions; H or OH if unused. Positions of bridges follow the written chain, without caps; N, C: chain ends. Residues, ends and D or L forms follow the SMILES beside them. *: point of attachment. C20 diacid = O=C(O)CCCCCCCCCCCCCCCCCCC(=O)*; γGlu = O=C(O)[C@H](CCC(=O)[*:2])N[*:1]

Assay: Assay (III) ThT fibrillation assay for physical stability
Format: physicochemical
Conditions: ThT fibrillation assay
Outline: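 Freshly prepared formulations, pH-adjusted, with 1 μM ThT; four or eight replicates incubated at 37 °C under 960 rpm orbital shaking. Fluorescence (ex 444/em 485 nm) read every 20 min; […]. Peptide concentration measured by RP-HPLC before and after the run.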
For `CC[C@H](C)[C@H](NC(=O)[C@@H]1CCCN1C(=O)CNC(=O)[C@H](Cc1ccccc1)NC(=O)[C@H](CC(N)=O)NC(=O)[C@H](CC(N)=O)NC(=O)[C@H](CO)NC(=O)[C@H](CO)NC(=O)[C@H](Cc1c[nH]cn1)NC(=O)[C@H](Cc1c[nH]cn1)NC(=O)[C@H](CC(C)C)NC(=O)[C@H](Cc1ccccc1)NC(=O)[C@H](CCC(=O)O)NC(=O)[C@H](C)NC(=O)[C@H](CC(C)C)NC(=O)[C@H](CCCNC(=N)N)NC(=O)[C@H](CCC(N)=O)NC(=O)[C@@H](NC(=O)[C@H](C)NC(=O)[C@@H]1CSSC[C@H](NC(=O)[C@H](CCCCN)NC(=O)[C@H](CO)NC(=O)CC[C@H](NC(=O)CCCCCCCCCCCCCCCCCCC(=O)O)C(=O)O)C(=O)N[C@@H](CC(N)=O)C(=O)N[C@@H]([C@@H](C)O)C(=O)N[C@@H](C)C(=O)N[C@@H]([C@@H](C)O)C(=O)N1)[C@@H](C)O)C(=O)N[C@@H](CC(C)C)C(=O)N1CCC[C@H]1C(=O)N1CCC[C@H]1C(=O)N[C@H](C(=O)N[C@@H](CC(N)=O)C(=O)N[C@H](C(=O)NCC(=O)N[C@@H](CO)C(=O)N[C@@H](Cc1c[nH]cn1)C(=O)N[C@H](C(=O)N[C@@H](Cc1ccc(O)cc1)C(N)=O)[C@@H](C)O)C(C)C)[C@@H](C)O` [Example 85, N-alpha-[(S)-4-Carboxy-4-(19-carboxynonadecanoylamino)butyryl]-Ser-[Glu14,His17,His35]-pramlintide] ({C20 diacid-γGlu}-SKCNTATCATQRLAEFLHHSSNNFGPILPPTNVGSHTY-NH2; disulfide 3-8 (inferred); C-terminus assumed), the “ThT pH 4.0 recovery” value was 100% and the “ThT pH 4.0 recovery (%)” value was 100%.
With `CC[C@H](C)[C@H](NC(=O)[C@@H]1CCCN1C(=O)CNC(=O)[C@H](Cc1ccccc1)NC(=O)[C@H](CC(N)=O)NC(=O)[C@H](CC(N)=O)NC(=O)[C@H](CO)NC(=O)[C@H](CO)NC(=O)[C@H](Cc1c[nH]cn1)NC(=O)[C@H](CCCNC(=N)N)NC(=O)[C@H](CC(C)C)NC(=O)[C@H](Cc1ccccc1)NC(=O)[C@H](CCC(=O)O)NC(=O)[C@H](C)NC(=O)[C@H](CC(C)C)NC(=O)[C@H](CCCNC(=N)N)NC(=O)[C@H](CCC(N)=O)NC(=O)[C@@H](NC(=O)[C@H](C)NC(=O)[C@@H]1CSSC[C@H](NC(=O)[C@H](Cc2c[nH]cn2)NC(=O)[C@H](Cc2c[nH]cn2)NC(=O)[C@H](Cc2c[nH]cn2)NC(=O)CC[C@H](NC(=O)CCCCCCCCCCCCCCCCCCC(=O)O)C(=O)O)C(=O)N[C@@H](CC(N)=O)C(=O)N[C@@H]([C@@H](C)O)C(=O)N[C@@H](C)C(=O)N[C@@H]([C@@H](C)O)C(=O)N1)[C@@H](C)O)C(=O)N[C@@H](CC(C)C)C(=O)N1CCC[C@H]1C(=O)N1CCC[C@H]1C(=O)N[C@H](C(=O)N[C@@H](CC(N)=O)C(=O)N[C@H](C(=O)NCC(=O)N[C@@H](CO)C(=O)N[C@@H](CC(N)=O)C(=O)N[C@H](C(=O)N[C@@H](Cc1ccc(O)cc1)C(N)=O)[C@@H](C)O)C(C)C)[C@@H](C)O` [Example 12, N-alpha-[(S)-4-Carboxy-4-(19-carboxynonadecanoylamino)butyryl]-His-His-[His1,Glu14,Arg17]-pramlintide] ({C20 diacid-γGlu}-HHHCNTATCATQRLAEFLRHSSNNFGPILPPTNVGSNTY-NH2; disulfide 4-9 (inferred); C-terminus assumed) the “ThT pH 4.0 recovery” value was 50% and the “ThT pH 4.0 recovery (%)” value was 50%.
With `CC[C@H](C)[C@H](NC(=O)[C@@H]1CCCN1C(=O)CNC(=O)[C@H](Cc1ccccc1)NC(=O)[C@H](CC(N)=O)NC(=O)[C@H](CCC(N)=O)NC(=O)[C@H](CO)NC(=O)[C@H](CO)NC(=O)[C@H](Cc1c[nH]cn1)NC(=O)[C@@H](NC(=O)[C@H](CC(C)C)NC(=O)[C@H](Cc1ccccc1)NC(=O)[C@H](CCC(=O)O)NC(=O)[C@H](C)NC(=O)[C@H](CC(C)C)NC(=O)[C@H](CCCNC(=N)N)NC(=O)[C@H](CCC(N)=O)NC(=O)[C@@H](NC(=O)[C@H](C)NC(=O)[C@@H]1CSSC[C@H](NC(=O)[C@H](CCC(=O)O)NC(=O)CC[C@H](NC(=O)CCCCCCCCCCCCCCCCCCC(=O)O)C(=O)O)C(=O)N[C@@H](CC(N)=O)C(=O)N[C@@H]([C@@H](C)O)C(=O)N[C@@H](C)C(=O)N[C@@H]([C@@H](C)O)C(=O)N1)[C@@H](C)O)C(C)C)C(=O)N[C@@H](CC(C)C)C(=O)N1CCC[C@H]1C(=O)N1CCC[C@H]1C(=O)N[C@H](C(=O)N[C@@H](CC(N)=O)C(=O)N[C@H](C(=O)NCC(=O)N[C@@H](CO)C(=O)N[C@@H](CCC(N)=O)C(=O)N[C@H](C(=O)N1CCC[C@H]1C(N)=O)[C@@H](C)O)C(C)C)[C@@H](C)O` [Example 138, N-alpha-[(S)-4-Carboxy-4-(19-carboxynonadecanoylamino)butyryl]-[Glu1,Glu14,Gln21,Gln35,Pro37]-pramlintide] ({C20 diacid-γGlu}-ECNTATCATQRLAEFLVHSSQNFGPILPPTNVGSQTP-NH2; disulfide 2-7) the “ThT pH 4.0 recovery (%)” value was 5%.
For `CC[C@H](C)[C@H](NC(=O)[C@@H]1CCCN1C(=O)CNC(=O)[C@H](Cc1ccccc1)NC(=O)[C@H](CC(N)=O)NC(=O)[C@H](CC(N)=O)NC(=O)[C@H](CO)NC(=O)[C@H](CO)NC(=O)[C@H](Cc1c[nH]cn1)NC(=O)[C@@H](NC(=O)[C@H](CC(C)C)NC(=O)[C@H](Cc1ccccc1)NC(=O)[C@H](CC(N)=O)NC(=O)[C@H](C)NC(=O)[C@H](CC(C)C)NC(=O)[C@H](CCCNC(=N)N)NC(=O)[C@H](CCC(N)=O)NC(=O)[C@@H](NC(=O)[C@H](C)NC(=O)[C@@H]1CSSC[C@H](NC(=O)[C@H](CCC(=O)O)NC(=O)[C@H](CCCNC(=N)N)NC(=O)[C@H](CCC(=O)O)NC(=O)[C@H](CCC(=O)O)NC(=O)CCCCCCCCCCCCCCCCCCC(=O)O)C(=O)N[C@@H](CC(N)=O)C(=O)N[C@@H]([C@@H](C)O)C(=O)N[C@@H](C)C(=O)N[C@@H]([C@@H](C)O)C(=O)N1)[C@@H](C)O)C(C)C)C(=O)N[C@@H](CC(C)C)C(=O)N1CCC[C@H]1C(=O)N1CCC[C@H]1C(=O)N[C@H](C(=O)N[C@@H](CC(N)=O)C(=O)N[C@H](C(=O)NCC(=O)N[C@@H](CO)C(=O)N[C@@H](CC(N)=O)C(=O)N[C@H](C(=O)N1CCC[C@H]1C(N)=O)[C@@H](C)O)C(C)C)[C@@H](C)O` [Example 121, N-alpha-(19-carboxynonadecanoyl)-Glu-Glu-Arg-[Glu1,Pro37]-pramlintide] ({C20 diacid}-EERECNTATCATQRLANFLVHSSNNFGPILPPTNVGSNTP-NH2; disulfide 5-10 (inferred); C-terminus assumed), the “ThT pH 4.0 recovery (%)” value was 2.2%.
For `CC[C@H](C)[C@H](NC(=O)[C@@H]1CCCN1C(=O)CNC(=O)[C@H](Cc1ccccc1)NC(=O)[C@H](CC(N)=O)NC(=O)[C@H](CO)NC(=O)[C@H](CO)NC(=O)[C@H](CO)NC(=O)[C@H](Cc1c[nH]cn1)NC(=O)[C@H](Cc1c[nH]cn1)NC(=O)[C@H](CC(C)C)NC(=O)[C@H](Cc1ccccc1)NC(=O)[C@H](CCC(=O)O)NC(=O)[C@H](C)NC(=O)[C@H](CC(C)C)NC(=O)[C@H](CCCNC(=N)N)NC(=O)[C@H](CCC(N)=O)NC(=O)[C@@H](NC(=O)[C@H](C)NC(=O)[C@@H]1CSSC[C@H](NC(=O)[C@H](Cc2c[nH]cn2)NC(=O)[C@H](Cc2c[nH]cn2)NC(=O)[C@H](Cc2c[nH]cn2)NC(=O)CC[C@H](NC(=O)CCCCCCCCCCCCCCCCCCC(=O)O)C(=O)O)C(=O)N[C@@H](CC(N)=O)C(=O)N[C@@H]([C@@H](C)O)C(=O)N[C@@H](C)C(=O)N[C@@H]([C@@H](C)O)C(=O)N1)[C@@H](C)O)C(=O)N[C@@H](CC(C)C)C(=O)N1CCC[C@H]1C(=O)N1CCC[C@H]1C(=O)N[C@H](C(=O)N[C@@H](CC(N)=O)C(=O)N[C@H](C(=O)NCC(=O)N[C@@H](CO)C(=O)N[C@@H](CCC(=O)O)C(=O)N[C@H](C(=O)N[C@@H](Cc1ccc(O)cc1)C(N)=O)[C@@H](C)O)C(C)C)[C@@H](C)O` [Example 63, N-alpha-[(S)-4-Carboxy-4-(19-carboxynonadecanoylamino)butyryl]-His-His-[His1,Glu14,His17,Ser21,Glu35]-pramlintide] ({C20 diacid-γGlu}-HHHCNTATCATQRLAEFLHHSSSNFGPILPPTNVGSETY-NH2; disulfide 4-9 (inferred); C-terminus assumed), the “ThT pH 4.0 recovery (%)” value was 100%.
With `CC[C@H](C)[C@H](NC(=O)[C@H](CCC(=O)O)NC(=O)CNC(=O)[C@H](Cc1ccccc1)NC(=O)[C@H](CC(N)=O)NC(=O)[C@H](CC(N)=O)NC(=O)[C@H](CO)NC(=O)[C@H](CO)NC(=O)[C@H](CCCNC(=N)N)NC(=O)[C@H](Cc1c[nH]cn1)NC(=O)[C@H](CC(C)C)NC(=O)[C@H](Cc1ccccc1)NC(=O)[C@H](CCC(=O)O)NC(=O)[C@H](C)NC(=O)[C@H](CC(C)C)NC(=O)[C@H](CCCNC(=N)N)NC(=O)[C@H](CCC(N)=O)NC(=O)[C@@H](NC(=O)[C@H](C)NC(=O)[C@@H]1CSSC[C@H](NC(=O)[C@H](Cc2c[nH]cn2)NC(=O)CC[C@H](NC(=O)CCCCCCCCCCCCCCCCCCC(=O)O)C(=O)O)C(=O)N[C@@H](CC(N)=O)C(=O)N[C@@H]([C@@H](C)O)C(=O)N[C@@H](C)C(=O)N[C@@H]([C@@H](C)O)C(=O)N1)[C@@H](C)O)C(=O)N[C@@H](CC(C)C)C(=O)N[C@@H](CO)C(=O)N[C@@H](CCCNC(=N)N)C(=O)N[C@H](C(=O)N[C@@H](CC(N)=O)C(=O)N[C@H](C(=O)NCC(=O)N[C@@H](CO)C(=O)N[C@@H](CC(N)=O)C(=O)N[C@H](C(=O)N[C@@H](Cc1ccc(O)cc1)C(N)=O)[C@@H](C)O)C(C)C)[C@@H](C)O` [Example 7, N-alpha-[(S)-4-Carboxy-4-(19-carboxynonadecanoylamino)butyryl]-[His1,Glu14,His17,Arg18,Glu25,Ser28,Arg29]-pramlintide] ({C20 diacid-γGlu}-HCNTATCATQRLAEFLHRSSNNFGEILSRTNVGSNTY-NH2; disulfide 2-7 (inferred); C-terminus assumed) the “ThT pH 4.0 recovery (%)” value was 0%.
